# Experimental data taken from the supplement of paper PMC3334620.
# The full ranking holds about 33,000 sequences; the median of “E-score (-0.5 to 0.5)” is about -0.04, and the highest 2% start at about 0.36. This is one part of the list.
# Target: T1, Hmlalpha2 (UniProt P0CY09)
# T1 sequence: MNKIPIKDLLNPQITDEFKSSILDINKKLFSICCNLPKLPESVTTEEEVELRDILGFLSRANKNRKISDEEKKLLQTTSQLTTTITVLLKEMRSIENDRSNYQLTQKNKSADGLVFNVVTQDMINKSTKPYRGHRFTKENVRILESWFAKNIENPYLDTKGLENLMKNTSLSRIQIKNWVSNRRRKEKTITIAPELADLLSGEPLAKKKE
# Experiment: PBM E-score (8-mer binding enrichment) (E-score (-0.5 to 0.5)); higher = stronger / more preferred TF binding; most listed sequences are background and not binding sites
# Conditions: protein concentration: 200 nM; construct: GST-full length
# Procedure, shortened: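 E-scores (a modified Wilcoxon-Mann-Whitney statistic) were assigned by the Universal PBM Analysis Suite to every ungapped eight-base word pooled with its reverse complement. The input came from universal all-10-mer Agilent arrays made double-stranded by primer extension and probed with GST-tagged yeast transcription factors at about 100-200 nM. Fluorescent anti-GST detected bound protein, and masliner normalised the scans.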
row,Sequence,PBM E-score
1,AGCCCCTG,-0.221
2,ATAGAAGG,-0.262
3,AACCCTAA,-0.0438
4,AGTGCCCG,-0.115
5,CTGCGCTC,-0.248
6,ACGCGTCT,0.0891
7,GACGTCAA,0.171
8,ATCTTTTA,0.137
9,GCACGGGC,-0.259
10,AAAGCCGT,0.0037
11,CTGAATGA,-0.0897
12,CTAGGAAC,-0.171
13,CTACAGCC,-0.113
14,AAAACTGC,0.0251
15,CGTGGACA,-0.00462
16,AACCGTTG,0.105
17,CGCATGCG,0.00712
18,ACGGTCGA,-0.0835
19,ACAGGGCC,-0.052
20,CCCACTTA,0.00418
21,CGCAACAG,0.041
22,CCAGATCG,-0.21

row,Sequence,PBM E-score
1,ACATAGAA,0.267
2,ATTTTCAA,0.047
3,CAAACTAC,0.0558
4,AGCTGCCA,-0.134
5,GCTCCCAC,-0.216
6,CGTTCCGC,0.00967
7,CTGGATTC,-0.214
8,ACTTCCTC,-0.19
9,CAGCCCTG,-0.0988
10,AAGACAAA,0.0838
11,CAGCGGAC,-0.139
12,ATTACAAC,0.4
13,ATACCTCA,-0.072
14,CACTAAAG,-0.0746
15,CTTTGATC,-0.194
16,TAAAGGTA,0.0933
17,ATTGCTCA,-0.00957
18,CAATCCGG,-0.173
19,CAGCTACC,-0.168
20,ATTTGCTC,-0.155
21,AGATTGTG,0.0599
22,TCCCGTAA,-0.0167

row,Sequence,PBM E-score
1,CGACGCAG,0.083
2,AGAGAAAG,-0.18
3,GCTGAAGA,-0.152
4,AACTGCAC,0.0702
5,AACAGCTG,-0.00651
6,CAACTGTA,0.0556
7,CCACTTCG,-0.23
8,ATTGTTTC,0.0454
9,CCCGAGGA,-0.237
10,ATGTCAGG,0.117
11,CTGGTTTA,0.0556
12,CACCTAAC,-0.14
13,TCTCGACA,0.261
14,AGTACACA,0.387
15,GCTTTCGA,-0.124
16,CTTGTCTC,-0.192
17,CAAGATTA,0.104
18,CAAAAGAA,0.121
19,CTCTGTGC,-0.246
20,CCATGCTC,-0.13
21,AAAGCCCC,-0.271
22,CAAAGCAG,0.0305

row,Sequence,PBM E-score
1,AGGAGGAG,-0.218
2,CTTTGATA,-0.0072
3,CGGTGTTC,-0.0917
4,ACTTATAT,0.212
5,ATCTTTAA,0.109
6,ACAGGCGT,-0.058
7,AGGGGCGC,-0.172
8,AAGGAGCC,-0.289
9,AAACTTTC,-0.132
10,ATCAGAGG,-0.126
11,ATTAATGA,0.0848
12,ACGTGAGG,-0.127
13,AAACAATC,0.131
14,ATACATGG,0.451
15,CAATCCCA,-0.306
16,CGCTTGAA,0.133
17,GCTCACAC,0.00037
18,AGGCGAAT,-0.0424
19,GGTACGAA,-0.0157
20,ATGCTGGG,-0.0354
